Experimental data from PubChem BioAssay AID493208 (National Center for Advancing Translational Sciences (NCATS), 2011).
In all, about 44,000 compounds went through this assay and about 340 (0.77%) were called active. Roughly 5% stayed inconclusive and do not appear here. Calls come from the whole dose curve; as a rule, active = well fitted inhibition curve with a large enough effect; inconclusive = small, poorly fitted or top-dose-only effect; inactive = flat fitted curve, though single readings scatter. The list shows a part of the results.

Experiment: Acumen qHTS Assay for Inhibitors of the mTORC1 Signaling Pathway in MEF (Tsc2-/-, p53-/-) Cells: Sytravon;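 note: plate controls were DMSO for no effect and rapamycin for full effect; nearly all actives have a fitted effect of over 50% in size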
Conditions: phospho-rpS6 immunofluorescence/PI, 24 h; series mostly up to 38.3 µM; activity change, negative = inhibition: at the top concentration
Procedure, shortened: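 Tsc2-/-, p53-/- MEFs (empty-vector stable line) in DMEM + 10% FBS were treated with compounds 24 h at 37 degree Celsius, fixed, and immunostained for phospho-rpS6 (Alexa-488) with propidium iodide counterstain. Laser-scanning cytometry gave % positive cells, normalized against 7.5 nM rapamycin and DMSO.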

Activity change, negative = inhibition, inactive:
COc1ccc(-c2nsc(NC(=O)COc3ccc(C)c(C)c3)n2)cc1 3.14%, CCc1ccccc1NC(=O)C1(S(=O)(=O)c2ccc(Cl)cc2)CC1 -0.714%, Cc1ccc(OCC(=O)Nc2ccc(Cl)c(-c3nc4ncccc4o3)c2)cc1C -11.7%, Cc1cc(C)cc(NC(=O)CN2C(=O)CSc3ccc(S(=O)(=O)N(C)C)cc32)c1 5.64%, CCOC(=O)c1c(C)oc2ncnc(Nc3ccc(F)cc3Cl)c12 3.59%, COc1ccc(-c2oc3ncn4nc(-c5cccc(C)c5)nc4c3c2-c2ccc(OC)cc2)cc1 -9.5%, COc1cc(C(=O)Nc2nnc(S(=O)(=O)N(C)c3ccccc3)s2)cc(OC)c1OC 3.76%, Cc1ccc(CN2C(=O)c3ccccc3Sc3ccc(C(=O)NC4CCCCC4)cc32)cc1 7.47%, COc1ccccc1CNC(=O)CS(=O)(=O)c1cccc2nsnc12 -0.48%, COc1cc(C(=O)NCC(c2ccc(N(C)C)cc2)N2CCc3ccccc32)cc(OC)c1OC (stereo unspecified) 23.9%, Cc1ccc(-c2nc3n(n2)C(c2ccccc2C)C=C(c2ccc(Cl)cc2)N3)cc1 (stereo unspecified) -20.8%, COc1ccc(CCNC(=O)c2cc(-c3ccc(C)cc3)nc3n[nH]c(-c4ccccc4)c23)cc1OC -0.723%, COc1ccc(OC)c(NC(=O)CCn2cnnn2)c1 0.393%, COc1ccc(CNC(=O)c2cc3c(=O)[nH]c4ccc(C)cc4c3s2)c(OC)c1 -1.2%, O=C(NC1CC(=O)N(c2ccc(F)cc2)C1)c1cccs1 (stereo unspecified) 2.55%, O=C(CSc1ncc(CO)n1Cc1ccccc1)Nc1nc2ccccc2s1 -13.7%, Cc1ccn2c(Nc3ccc(F)cc3)c(-c3ccc(C)o3)nc2c1 -0.522%, COc1ccc(CNC(=O)C2CCN(c3nc4ccccc4[nH]3)CC2)c(OC)c1 0%, COc1cc(CN(C(=O)COc2ccc(Br)cc2)c2ccccn2)cc(OC)c1OC -18.9%, COC(=O)c1cccc(NC(=O)C2CCN(S(=O)(=O)Cc3ccccc3)CC2)c1C -3.74%, CCCCOc1ccc(OC(=O)c2sc3ncn(Cc4cccc(F)c4)c(=O)c3c2C)cc1 -4.66%, COc1cc2nc(SCc3ccc(Cl)cc3)n3nc(CCn4nc(C)cc4C)nc3c2cc1OC -4.28%, Cc1nn(C(=O)c2ccc(Cl)cc2)c(C)c1Sc1ccc(Cl)cc1 7.03%, CC(=O)c1sc2c(c1C)c(=O)n(-c1ccc(Cl)cc1)c(=O)n2Cc1cc(=O)n2cc(Cl)ccc2n1 -0.635%, CCCSc1nc2sc3c(c2c(=O)n1-c1ccccc1)CCC(C)C3 (stereo unspecified) 10.9%, Cc1cc(NC(=O)CSc2nc(-c3ccccc3F)nc3c2c(=O)n(C)c(=O)n3C)no1 0.201%, Cc1cccc(CSc2ncccc2C(=O)O)c1 11%, CCOc1ccccc1NC(=O)Cn1c(=O)n(C(C)C)c(=O)c2oc3ccccc3c21 -0.504%, COc1ccc(-n2c(=O)c3ccc(C(=O)NCc4ccc(C)cc4)cc3n(Cc3ccc(Cl)cc3)c2=O)cc1 -15.1%, COc1ccc(-n2nc3c(N4CCCC(C(=O)NCCc5ccccc5C)C4)nnc(C)c3c2C)cc1 (stereo unspecified) -5.23%, COCCn1c(C)cc(O)c(C(c2ccc(F)cc2)N2CCC(C)CC2)c1=O (stereo unspecified) 9.15%, Cc1ccc(N(CC(=O)Nc2ccc(C)c(Cl)c2)S(=O)(=O)c2cccs2)cc1 -8.55%, COc1cccc(NC(=O)Cn2c(=O)n(-c3ccccc3)c(=O)c3c2c2cc(OC)ccc2n3C)c1 -6.15%, O=S(=O)(c1ccc(-c2cnc(C3CC3)o2)cc1)N1CCN(c2ccccc2)CC1 0%, CC1=C(C(=O)OC2CCCC2)C(c2ccccc2C(F)(F)F)CC(=O)N1 (stereo unspecified) 1.03%, CCOc1ccccc1NC(=O)c1c(NC(=O)Cc2ccc(OC)cc2)sc2c1CCC2 -1.25%, CCc1cccc(NC(=O)c2ccc3c(c2)c(C)c(C)n3Cc2ccc(F)cc2)c1 -0.426%, Cc1ccc(OCC(=O)Nc2cccc(C(=O)OCc3cc(=O)n4c(C)csc4n3)c2)cc1 1.09%, Cc1ccccc1OCC(=O)OCc1cc(=O)n2nc(-c3cccs3)sc2n1 2.06%, COc1ccccc1CNC(=O)c1nnn(CC(=O)Nc2c(C)cccc2C)c1N 4.52%, Cn1c(C(=O)Nc2ccc(OC(F)(F)F)cc2)cc2c(=O)n3ccccc3nc21 -1.65%, CC(=O)c1ccc(N2CCN(c3ncnc4c3cnn4-c3cc(Cl)ccc3C)CC2)cc1 -0.108%, Cc1ccc(CNC(=O)CN2N=C(c3ccccc3)CCC2=O)cc1 3.42%, Cc1cccc(CSc2nnc3[nH]c(=O)cc(-c4ccccc4)n23)c1 -2.16%, COc1cc(-c2nc3ccc(Cl)cn3c2Nc2ccc3c(c2)OCCO3)ccc1O -22.1%, CCOc1ccc(NC(=O)N2CCC(N3CCCCC3)CC2)cc1 -2.02%, Cc1cc(NC(=O)C2CCCN(S(=O)(=O)c3cccc4nsnc34)C2)ccc1Br (stereo unspecified) -7.94%, O=C(Nc1cc(Cl)cc(Cl)c1)c1ccc(F)c(S(=O)(=O)N2CCN(c3ccccc3F)CC2)c1 6.95%, Cc1ccc(NC(=O)COc2ccc3oc4c(c3c2)CCCC4)cc1C 0.0556%, Cc1ccc(CN2COc3c(Cl)cc4c(-c5ccccc5)cc(=O)oc4c3C2)cc1 -0.482%, O=C(CN1C(=O)COc2ccc(S(=O)(=O)N3CCOCC3)cc21)N1CCN(c2ccccc2F)CC1 0.0186%, Cc1ccc(NC(=O)C(=O)NCC2(c3ccccc3)CCCC2)cc1C -3.03%, CCc1cccc(NC(=O)c2c(C)oc3nc(C)nc(N4CCCC4)c23)c1 4.52%, CCCOc1ccc(CNC(=O)CN2C(=O)c3cccnc3Oc3ccc(C)cc32)cc1 -19.4%, O=C(NCCCO)c1nn(-c2ccc(Cl)cc2)nc1CO 2.74%, COC(=O)C1CCN(c2csc3ccc(Cl)cc3c2=O)CC1 -26.4%, CCc1ccc(OCc2cc(=O)n3cc(C)sc3n2)cc1 2.37%, CCOc1ccc2oc(=O)cc(CN3CCN(c4ccccc4OC)CC3)c2c1 -1.12%, COc1cc(OC)c(OC)cc1CNCCCSc1nnnn1C -1.06%, COc1cccc(NC(=O)Cn2c(=O)n(CCc3ccc(OC)c(OC)c3)c(=O)c3ccccc32)c1 0.152%, COc1ccc(C(=O)N(Cc2cc(OC)c(OC)c(OC)c2)C2CCS(=O)(=O)C2)cc1Cl (stereo unspecified) -2.54%, CCc1ccc(NCc2cc3ccc(OC)cc3n(CC(=O)Nc3ccc(C)c(Cl)c3)c2=O)cc1 -3.34%, Cc1ccc(C(=O)c2oc3ccccc3c2NC(=O)Cc2ccccc2)cc1 0.0162%, Cn1cc(S(=O)(=O)N2CCOCC2)cc1C(=O)Nc1cccc(C#N)c1 -1.13%, CC(C)Oc1ccc(CNC(=O)Cn2nc(N3CCN(c4ccccc4)CC3)ccc2=O)cc1 0%, CCC(=O)N1CCc2cc(OC)c(OC)cc2C1COc1ccc2c(C)cc(=O)oc2c1 (stereo unspecified) 1.87%, COc1ccc(C2c3c(n(C)c4ccccc34)C(=O)N2CC(=O)Nc2ccc(F)cc2)cc1 (stereo unspecified) -7.12%, COCCNC(=O)C1=CC(c2ccc3c(c2)OCO3)=NS(=O)(=O)N1C 1.96%, CC(C)c1ccc(CNc2n[nH]c(-c3ccco3)n2)cc1 -0.506%, Cc1ccc(CSc2nc(-c3ccccc3C)nc3c2Cc2c(CO)cnc(C)c2O3)cc1 2.37%, COc1ccc(-c2ccc(=O)n(CC(=O)Nc3ccc(OC)c(OC)c3)n2)cc1 -8.98%, CCOc1ccc(-c2nc(SCC(=O)Nc3cc(F)ccc3F)n3[nH]c(=O)cc3n2)cc1 6.33%, Cn1ncc2c(NCc3ccc(F)cc3)ncnc21 -1.25%, CCOC(=O)c1c(S(=O)(=O)N2CCC(C(=O)N3CCN(c4ccc(F)cc4)CC3)CC2)c(C)n(C)c1C -0.0823%, CCn1nnc2cc(C(=O)Nc3ccc(Br)cc3F)ccc21 -11.1%, Cn1c(=O)c2c(SCC(=O)N3CCc4ccccc43)nc(-c3ccc(Cl)cc3)nc2n(C)c1=O -5.18%, Cc1ccc(NC(=O)C2CCCN2S(=O)(=O)c2ccc3c(c2)n(C)c(=O)c(=O)n3C)cc1C (stereo unspecified) -18.3%, O=C1N(Cc2ccccc2)c2ccccc2C1(O)c1c[nH]c2ccccc12 (stereo unspecified) 5.28%, O=C(Nc1ccc(C(F)(F)F)cc1)C(Cc1ccccc1)n1cccc1 (stereo unspecified) -10%, O=C(NCCCN1CCN(c2ccccc2F)CC1)c1ccc2nc(N3CCCCC3)sc2c1 2.84%, CC(=O)Nc1cccc(C(=O)NCc2ccc3c(c2)CCN3C(=O)c2ccc(F)cc2)c1 -0.996%, CCN(C(=O)C1CCCN(c2ncnc3c2nc2n3CCCCC2)C1)c1cccc(Cl)c1 (stereo unspecified) -7.9%, Cc1cc2c(cc3c(SCc4ccccc4Cl)nnc(C)n32)o1 5.67%, COc1cccc(NS(=O)(=O)c2ccc3[nH]cc(C(=O)N4CCCC4)c(=O)c3c2)c1 -0.0737%, Cc1c(CCNC(=O)C(C)(C)C)sc2nc(-c3ccc(F)cc3)nn12 -1.93%, COc1ccccc1NC(=O)C1=C(C)Nc2nc(SCc3ccccc3)nn2C1c1ccncc1 (stereo unspecified) -36.4%, COc1cc(OC)c(N(C)C(=O)c2sc3nc4n(c(=O)c3c2C)CCCCC4)cc1Cl -0.0225%, Cc1cc(Nc2cc(F)ccc2C)nc(-n2nc(C)cc2C)n1 -17%, COc1cc(NC(=O)Cn2nc3c(cc2=O)CC(C)CC3)cc(OC)c1OC (stereo unspecified) 2.44%, CC(C)N(Cc1ccccc1)C(=O)CN1C(=O)CSc2ccc(S(=O)(=O)N3CCCC3)cc21 2.37%, Cc1c(C(=O)N2CCC(C)CC2)c(S(=O)(=O)Nc2ccc(OC(F)(F)F)cc2)c(C)n1C 0%, CN(C)S(=O)(=O)N(CC(=O)NCCSc1ccccc1)c1ccccc1 2.23%, CCn1cc(C(=O)N2CCN(c3ccc(OC)cc3)CC2)c(=O)c2cc(S(=O)(=O)N3CCOCC3)ccc21 -5.36%, COc1ccc(OCC(=O)Nc2ccc(-c3nc4cc(C)c(C)cc4o3)cc2)cc1 -1.44%, COc1ccc2[nH]cc(CCN=C(NC(=O)c3ccccc3C)Nc3nc(C)cc(C)n3)c2c1 1.22%, O=C(Cn1ncc2c3ccccc3n(Cc3ccc(F)cc3)c2c1=O)NCCCN1CCCCC1 -7.53%
